# Source: the BET-seq Pho4 binding data (Le et al. 2018)
# The other results are listed elsewhere or left out. These are noisy estimates, calculated here from bound and input reads.
# Biological target: T1, Pho4 (S. cerevisiae) (UniProt P07270)
# T1 sequence: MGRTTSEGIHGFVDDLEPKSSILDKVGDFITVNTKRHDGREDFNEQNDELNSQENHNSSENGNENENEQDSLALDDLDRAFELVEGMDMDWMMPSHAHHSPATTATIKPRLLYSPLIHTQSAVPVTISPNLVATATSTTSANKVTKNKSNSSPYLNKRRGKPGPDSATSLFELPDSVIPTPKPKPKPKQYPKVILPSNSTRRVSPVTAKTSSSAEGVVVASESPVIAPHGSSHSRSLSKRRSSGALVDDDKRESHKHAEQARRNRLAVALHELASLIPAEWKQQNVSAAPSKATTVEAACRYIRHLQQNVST
# Assay: relative binding free energy (BET-seq); higher = weaker binding
# Settings: reference: library average
row,Sequence,relative binding free energy [kcal/mol]
1,TGGCTCACGTGATTTT,0.31
2,TAGCACACGTGGTTGG,0.01
3,TGGGTCACGTGGTTTT,0.23
4,TAGTGCACGTGGACTG,-0.14
5,TAGCTCACGTGGTGTA,0.21
6,GTTAACACGTGAGAGG,0.09
7,TGAATCACGTGTAGAG,0.17
8,TTGATCACGTGTAAAT,0.23
9,CTGTTCACGTGGTGCG,-0.04
10,GTCGTCACGTGGTGCG,0.09
11,TAGATCACGTGGCTGG,0.18
12,ATGGCCACGTGGGTTC,-0.06
13,GTTGACACGTGTAGGA,0.11
14,AAGTCCACGTGGTGCG,0
15,CTGGGCACGTGTTGAA,-0.14
16,TATTACACGTGTCTAG,0.07
17,AGTAACACGTGTGCTT,0.03
18,CGGAACACGTGTTTGT,0.06
19,GGGAACACGTGTGTCG,0.07
20,TATAACACGTGGGAGA,-0.12
21,CATTTCACGTGTTGTT,0.15
22,TGTTCCACGTGATTGA,0.22
23,TTGTACACGTGGTATA,-0.12

row,Sequence,relative binding free energy [kcal/mol]
1,GTTCTCACGTGGGTCG,0.24
2,GGGCACACGTGGGAGC,0.08
3,GTTTGCACGTGCATGT,0.03
4,TATGACACGTGAGCGG,0.17
5,GGTGGCACGTGCGAAG,-0.09
6,ATGTGCACGTGGGAAG,-0.1
7,GTGTTCACGTGTCTTG,0.32
8,GAATACACGTGGGTGT,-0.04
9,CACGTCACGTGGGGAG,0.07
10,TATATCACGTGGGTCA,0.03
11,AGGGGCACGTGACGTT,-0.08
12,GCTTTCACGTGGGGAT,0.3
13,AAGTGCACGTGAAAGT,0.29
14,GTTGGCACGTGTCAGG,-0.13
15,TATATCACGTGGCGTG,0.07
16,AGGTTCACGTGGGAAG,0.19
17,TTATGCACGTGCTTGA,-0.09
18,TAGGCCACGTGGGATG,-0.11
19,AGTGACACGTGAGGGA,0.17
20,TCGCACACGTGTGGTG,0.15
21,CTTGTCACGTGTTGAA,0.15
22,GGTCACACGTGCGGGT,-0.06
23,CTTTGCACGTGCGTGG,-0.01

row,Sequence,relative binding free energy [kcal/mol]
1,CGTATCACGTGTTTGG,0.05
2,TGCGGCACGTGCGGGG,-0.16
3,CTTGTCACGTGGGGAC,-0.09
4,AGTGGCACGTGCGCTG,-0.28
5,CTCAGCACGTGAGGTT,0.26
6,GCTTGCACGTGGGGCT,-0.28
7,CGTTGCACGTGTCATT,0.08
8,GTGGCCACGTGTTGTA,-0.07
9,CAAGGCACGTGGGTTA,-0.24
10,TGAATCACGTGGGGAG,0.14
11,CTTCACACGTGTGGTG,0.05
12,GAAACCACGTGTGGTT,0.17
13,TGGTGCACGTGACATT,0.1
14,TGGAACACGTGTTTGG,0.06
15,GGTAACACGTGTGTGT,0.04
16,ATGAGCACGTGCAGGG,-0.17
17,CTGTGCACGTGAGGCT,0.25
18,CGCTTCACGTGGGATT,0.3
19,AATGTCACGTGTGGAT,0.1
20,GTCTACACGTGAGTGA,0.36
21,TGGATCACGTGAAATT,0.42
22,GTGGGCACGTGAGATG,0.2
23,GAGGTCACGTGAGGAT,0.52

row,Sequence,relative binding free energy [kcal/mol]
1,CGTTACACGTGGAAGG,0.14
2,GTAAGCACGTGATGCG,-0.01
3,GAGGGCACGTGGGTTT,-0.1
4,TGCAGCACGTGTTCGG,-0.07
5,GTTGGCACGTGCTATG,-0.17
6,GTCTACACGTGGGGGT,0.01
7,GGATGCACGTGAGGGA,0.3
8,AGTCACACGTGTGGGA,-0.03
9,ATTGTCACGTGGGGAG,0.04
10,TGTCTCACGTGATGCG,0.2
11,GTTTTCACGTGCACGG,0.17
12,GAAGTCACGTGGCTGT,0.13
13,AGGGCCACGTGGTGGG,-0.17
14,CGTGTCACGTGATAAG,0.14
15,TGGCTCACGTGTAGTG,0.21
16,TTTGACACGTGGAACG,0.07
17,TTAGACACGTGTAATT,0.15
18,ACGTTCACGTGGGGGC,0.18
19,TCGGACACGTGGGGTA,-0.24
20,ACGTGCACGTGTTGAT,-0.09
21,TGTTACACGTGTAGAA,0.22
22,TCTGGCACGTGGATTT,0.12
23,CTGGCCACGTGGTTGG,-0.09

row,Sequence,relative binding free energy [kcal/mol]
1,GGATGCACGTGTTTTG,0.13
2,TGTGTCACGTGAGGTA,0.25
3,GTATCCACGTGGGGGC,-0.15
4,TTTGGCACGTGCCATG,-0.21
5,ATAGTCACGTGGATGG,0.07
6,CTGCGCACGTGTAGGG,-0.25
7,TGCAACACGTGGGGCT,-0.14
8,CTGTGCACGTGTGCTT,0.04
9,GATGTCACGTGGGCTG,-0.01
10,TGCTTCACGTGTTACG,0.32
11,GTGTTCACGTGTCCTG,0.24
12,TGAAGCACGTGTTGGT,-0.1
13,ATAAACACGTGTAGGA,0.15
14,TACTTCACGTGGAGGG,0.16
15,TAGTTCACGTGCTAAT,0.29
16,AGAGGCACGTGAGTAT,-0.01
17,ATTGACACGTGATAGG,0.03
18,CTTTACACGTGGTAAG,0.09
19,TAGTGCACGTGGGGAG,-0.11
20,TTATGCACGTGTTAGA,0
21,GTTGTCACGTGGGACG,0.06
22,AACGGCACGTGTTAGT,-0.04
23,GTTTACACGTGAGGTG,0.35
